70 compounds from PubChem BioAssay AID1240 (Sanford-Burnham Center for Chemical Genomics, 2008) can be followed below.

About 800 (1.6%) of roughly 50,000 compounds showed an effect of 50% or more. The list shows a part of the results.

The assay deals with Bcl-2-like protein 10 (Homo sapiens) (UniProt Q9HD36). The experiment in a line: Phenotype converters, Bcl-B/TR3 peptide binding displacement, primary biochemical FP (AID 1240).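 Further: 0% = Bcl-B with tracer peptide and DMSO and 100% = tracer peptide lacking Bcl-B.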 Particulars: GST-Bcl-B / FITC-TR3 peptide fluorescence polarization; stronger effect = higher value; compound at 3.75 mg/L. (In general: Fluorescence polarisation rises when a labelled molecule tumbles more slowly, as on binding a larger partner.)
Sequence of UniProt Q9HD36 (Q9HD36 whole entry, looked up): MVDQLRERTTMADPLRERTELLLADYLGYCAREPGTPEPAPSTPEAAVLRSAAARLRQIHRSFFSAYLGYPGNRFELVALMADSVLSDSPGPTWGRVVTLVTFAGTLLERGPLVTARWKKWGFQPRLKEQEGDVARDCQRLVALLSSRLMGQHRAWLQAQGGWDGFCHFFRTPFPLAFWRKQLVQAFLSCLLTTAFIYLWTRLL
As for `COCCNC(=O)C(=O)Nc1ccccc1`, the displacement turned out to be 7.5%. To `O=C(N/N=C/c1ccc[nH]1)c1sc2ccccc2c1Cl` belongs -5.4%; to `O=C(O)/C=C\C(=O)Nc1ccc(Nc2ccccc2)cc1`, -1.2%; to `CN(C)C(=S)NC(=O)C12CC3CC(C)(CC(C)(C3)C1)C2`, -7.4%. As for `CCOC(=O)C1=C(C)NC(=O)CC1c1ccc([N+](=O)[O-])cc1` (stereo not given), the displacement was -4.1%. To `CCOC(=O)c1c(-c2ccc(C3CCCCC3)cc2)csc1N` belongs 0.7%. The same measure for `CSc1nc(-c2ccccc2)nc2[nH]ccc(=O)c12`: 110%; for `O=C(N/N=C/c1ccccc1F)C(=O)N1CCCC1`: 9.8%. In the case of `O=C(CC(=O)Nc1cccc(C(F)(F)F)c1)Nc1cccc(C(F)(F)F)c1`, the displacement is -6.9%. With `O=C(O)CCCCCN1C(=O)C(=O)/C(=C(/O)c2ccc([N+](=O)[O-])cc2)C1c1ccccc1Cl` (stereo not given), the displacement is -0.8%. The same measure for `CCCCOc1ccccc1C=C1C(=O)NC(=S)NC1=O`: 5.7%. To `COC(=O)c1ccccc1NC(=O)CSc1nnc(-c2cccc(F)c2)n1-c1ccccc1` belongs -1.1%; to `Cc1ccccc1NC(=O)CSc1nnc(C)c2ccccc12`, 6.5%; to `CC(C)C(NC(=O)CN(c1cccc([N+](=O)[O-])c1)S(=O)(=O)c1ccccc1)C(C)C`, 11.1%. To `CCNC(=O)C(=O)Nc1ccccc1C` belongs 6.5%; to `COCCOC(=O)c1ccc(NC(=O)c2ccc(C(C)(C)C)cc2)cc1`, 11.1%; to `O=C(O)Cn1c(SCCOc2ccc(Cl)cc2)nc2ccccc21`, 9%. On to `O=C(Cn1cnc([N+](=O)[O-])n1)Nc1ccc(Br)cc1`, for which the displacement came out at 1.4%. The same measure for `CCn1c2ccccc2c2cc(NC(=O)c3cccc(C)c3)ccc21`: 3.9%. Regarding `N#C/C(=C/c1ccc(/C=C(\C#N)C(N)=O)cc1)C(N)=O`, the displacement was determined as 6.1%. Turning to `CC(C)(C)C1CCc2c(sc(NC(=O)c3ccncc3)c2C(N)=O)C1` (stereo not given), the displacement is -4%. The same measure for `COc1cc(Br)c(/C=C2/C(=O)N(c3ccc(C)cc3)N=C2C)cc1OC`: -5.3%. Regarding `Oc1[nH]c2ccccc2c1N=Nc1nc(-c2ccccc2)c2cc(Cl)ccc2n1`, the displacement came to 24.4%. To `Clc1ccc(N2CCN(N=Cc3cccc(Cl)c3)CC2)cc1` belongs -11.5%. The same measure for `CCN1C(=O)/C(=C\c2cn(Cc3ccccc3Cl)c3ccccc23)SC1=S`: 34.2%. The same measure for `CCOc1cc(C(=O)Nc2nc3ccccc3[nH]2)cc(OCC)c1OCC`: -9.6%; for `Cc1ccc(C(O)(c2ccccc2)c2nc3ccccc3n2C)cc1` (stereo not given): -1%; for `CCOC(=O)c1cc(-c2ccc(N)cc2)nc2ccc(Br)cc12`: -6.1%. As to `COC(=O)c1cc(NC(=O)c2cc(-c3cccc(OC)c3)nc3ccccc23)cc(C(=O)OC)c1`, the displacement came out at 8.2%. To `CCN(CC)CCn1c(SCc2ccccc2)nc2ccccc21` belongs -4.7%. To `Cc1ccc(C(=O)Oc2ccc(/C=C3\SC(=S)NC3=O)cc2)cc1` belongs 13.6%; to `COc1ccc(-c2cc(=O)n3[nH]c(-c4ccc(C)cc4)c(C)c3n2)cc1`, 12.8%; to `CCc1ccc(NC(=O)CSc2ccccn2)cc1`, 0.1%. The same measure for `O=C(NC(=S)NCc1ccccn1)c1ccc([N+](=O)[O-])cc1`: -7.3%; for `CCCOc1ccc(C(=O)Nc2ncc(Cc3cccc(Cl)c3)s2)cc1`: -11.3%; for `Cc1cc(C)nc(/N=C(/N)Nc2ccc(Cl)cc2[N+](=O)[O-])n1`: 2.1%. Consider `O=C(CSc1nc2ccccc2s1)N1c2ccccc2Sc2ccccc21`, for which the displacement was -8.5%. To `CC(=O)Nc1ccc(S(=O)(=O)NCc2cccnc2)cc1` belongs -0.9%. To `Cc1ccc(S(=O)(=O)N/N=C/c2ccc(OC(=O)c3ccccc3[N+](=O)[O-])cc2)cc1` belongs 1.4%; to `O=C1C(=O)N(c2cccnc2)C(c2cccc([N+](=O)[O-])c2)/C1=C(\O)c1ccc(Cl)cc1` (stereo not given), -15.1%. The same measure for `C=CCN1C(=O)/C(=C\c2cc(Br)c(O)c(OCC)c2)C(=O)NC1=S`: -12.5%; for `Cc1cc(-c2ccc(NC(=O)c3cccnc3)c(C)c2)ccc1NC(=O)c1cccnc1`: 9.8%; for `CC1=NN(C(=O)CSc2ccccn2)C(C)(O)C1` (stereo not given): 13.6%. On to `O=C(NCCO)C(=O)Nc1ccccc1`, for which the displacement came to 11.1%. The same measure for `CCOc1ccc(-c2cc(C(=O)O)c3cc(Br)ccc3n2)cc1`: -7.2%; for `CCOc1cc(/C=C2\C(=O)NC(=O)N(c3ccc(Cl)cc3)C2=O)cc(Br)c1OC`: 6.4%. To `CC(=O)NC1=NN(C(C)=O)C(C)(CCS(=O)(=O)c2ccc(Br)cc2)S1` (stereo not given) belongs 0.1%; to `CCCC(=O)Nc1nc(-c2ccccc2)cs1`, -5.5%. In the case of `COc1ccc(CNC(=O)CSCc2cccc(Br)c2)cc1`, the displacement is 0.5%. Turning to `O=C1C(Cl)=C(Nc2ccccc2)C(=O)N1c1cccc(Cl)c1`, the displacement is -1.3%. The same measure for `Cc1[nH]n(-c2ccccc2)c(=O)c1C=Nc1ccc(S(=O)(=O)N(C)C)cc1`: 3.8%; for `Cc1ccc(-c2nc(-c3ccc(F)cc3)no2)cc1`: 1.4%; for `CC(=O)NC1=NN(C(C)=O)C(C)(c2ccccc2)S1` (stereo not given): 13.3%. The same measure for `CCOC(=O)C1C(=O)N(C(=O)c2cncc(Br)c2)CC1c1ccccc1` (stereo not given): -0.6%; for `Oc1oc(-c2ccccc2)nc1C=Nc1ccc(Cl)c(Cl)c1`: 2.4%; for `COc1ccc(/C=C/C(=O)c2ccc(C)cc2)cc1[N+](=O)[O-]`: -2.1%.

`Cc1cc(C)c(NC(=O)C(c2ccccc2)c2ccccc2)c(C)c1`: the displacement was -0.5%.

In the case of `COc1cc(OC)cc(C(=O)N2CCN(Cc3ccco3)CC2)c1`, the displacement worked out at 3.7%. To `CCSc1nnc(NC(=O)c2ccc(Cl)c(Cl)c2)s1` belongs 2.5%. To `OCCCNCC(O)Cn1c2ccccc2c2ccccc21` (stereo not given) belongs -13.4%; to `O=C(CN(c1ccc(F)cc1)S(=O)(=O)c1ccccc1)NCCSc1ccccc1`, -10.4%; to `Cc1oc2ccc(OCc3c(F)cccc3Cl)cc2c1C(=O)O`, 11.7%.

`COC(=O)C1=C(C)NC2=C(C(=O)c3ccccc32)C1c1ccc(OCc2ccc(Cl)cc2Cl)c(OC)c1` (stereo not given): the displacement was -0.2%. To `O=C1NC(=O)N(c2cccc(Br)c2)C(=O)/C1=C/c1ccc(O)cc1` belongs -0.9%; to `CC(C)(C)c1ccc(-c2nc(-c3ccc(F)cc3)no2)cc1`, -4.4%. To `CC12CCC(C(=O)N(c3cccc(F)c3)C1=O)C2(C)C` (stereo not given) belongs -1.1%; to `COc1ccc(N(Cc2ccc(C(=O)NC3CCCC3)cc2)S(=O)(=O)c2ccccc2)cc1`, -14.5%; to `CC1=C(C(=O)Nc2ccccc2C)C(c2ccc(F)c(F)c2)C2=C(CC(C)(C)CC2=O)N1` (stereo not given), 8.8%. Take `Oc1ccc(C(=S)N2CCOCC2)cc1`: the displacement was 12.8%. The same measure for `COC(=O)CNc1cccc(C(=O)O)c1`: 6.5%.
